# According to PubChem BioAssay AID488969 (Vanderbilt High Throughput Screening Facility, 2010):
# Whole data set: some 110,000 compounds, median “z-score” near -0.1, cut for the highest 2% near 2. The list shows a part of the results. Activity calls are given as the source filed them.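 The calls were made as follows: active = z-score in the third read window above 3 or below -3; inactive = the rest.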
# Molecular target: Metabotropic glutamate receptor 8 (Rattus norvegicus) (UniProt P70579)
# Experiment: rat mGluR8 modulators via GIRK flux, primary screen, cell-based, thallium flux, HTS (AID 488969)
# Settings: HEK293 rat mGluR8, GIRK (G protein-gated inwardly rectifying potassium channel) thallium flux, FluoZin2; at 10 µM; stronger effect = higher value; submaximal glutamate (EC20) added with thallium
# Sequence of UniProt P70579 (P70579 whole entry, looked up): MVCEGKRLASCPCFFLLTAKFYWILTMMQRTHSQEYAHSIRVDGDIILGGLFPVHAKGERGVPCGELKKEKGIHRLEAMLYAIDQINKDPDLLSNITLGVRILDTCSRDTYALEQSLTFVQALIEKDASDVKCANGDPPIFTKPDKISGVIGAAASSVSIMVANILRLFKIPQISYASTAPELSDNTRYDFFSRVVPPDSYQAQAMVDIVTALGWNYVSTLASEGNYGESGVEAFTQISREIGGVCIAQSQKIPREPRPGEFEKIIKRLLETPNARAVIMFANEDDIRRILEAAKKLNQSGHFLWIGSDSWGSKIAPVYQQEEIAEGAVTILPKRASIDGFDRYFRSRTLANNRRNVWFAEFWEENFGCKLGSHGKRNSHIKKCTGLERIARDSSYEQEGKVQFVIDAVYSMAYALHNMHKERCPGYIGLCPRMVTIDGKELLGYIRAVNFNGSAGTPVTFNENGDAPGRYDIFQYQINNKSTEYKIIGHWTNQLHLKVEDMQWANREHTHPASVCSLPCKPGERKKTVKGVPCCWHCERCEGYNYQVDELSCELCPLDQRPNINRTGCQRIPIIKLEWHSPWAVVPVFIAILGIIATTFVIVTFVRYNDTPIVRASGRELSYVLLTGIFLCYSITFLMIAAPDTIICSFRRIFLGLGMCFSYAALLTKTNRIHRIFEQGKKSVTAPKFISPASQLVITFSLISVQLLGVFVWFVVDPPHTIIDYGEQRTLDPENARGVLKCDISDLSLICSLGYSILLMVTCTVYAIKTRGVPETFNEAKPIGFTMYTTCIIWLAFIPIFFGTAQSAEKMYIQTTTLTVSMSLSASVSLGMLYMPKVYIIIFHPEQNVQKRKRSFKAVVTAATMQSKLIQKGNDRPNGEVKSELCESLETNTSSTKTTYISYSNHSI
row,Structure (SMILES),z-score
1,Cn1nc(C(=O)NC2CCCCC2)c2ccccc2c1=O,-0.288
2,c1ccc(-c2ccc(OCCCn3cncn3)cc2)cc1,0.066
3,COc1ccc(S(=O)(=O)N2CC3CCCN3c3cc(C(F)(F)F)ccc32)cc1 (configuration not stated),-0.745
4,CCc1ccc(/C=C2\CN(CC)Cc3c2nc2ccccc2c3C(=O)O)cc1,-0.0446
5,Cc1occc(=O)c1OC(=O)Nc1ccccc1,-0.232
6,CC1SCC(=O)N(CC(=O)NCc2ccccc2)C1=O (configuration not stated),-0.233
7,CC(C)NC(=O)NC(=O)COC(=O)c1ccccc1F,-0.0834
8,COc1ccc(C(=O)O)cc1S(=O)(=O)N(C)CCc1cccnc1,-0.129
9,CCc1cc(OCCCCNCc2ccccc2)ccc1Cl,0.167
10,O=C(NCC1CCCO1)C1CCN(C(=O)c2ccc(Cl)cc2)CC1 (configuration not stated),-0.284
11,Cc1ccccc1NC(=O)c1cnc2ccccn2c1=O,-0.233
12,CCOc1ccc(S(=O)(=O)N(C)c2ccc(OCC(=O)Nc3nc(-c4cc(OC)ccc4OC)cs3)cc2)cc1,-0.389
13,CC(=O)Nc1ccc(N2C(=O)CCC2=O)cc1C,0.00186
14,O=C(CSc1nnc(-c2cccnc2)n1Cc1ccco1)N1c2ccccc2Sc2ccccc21,-0.115
15,COc1ccc(NS(=O)(=O)c2ccc(OCC(=O)N3CCOCC3)cc2)cc1,0.045
16,O=C(COC(=O)c1cccnc1Nc1cccc(C(F)(F)F)c1)NCc1ccc2c(c1)OCO2,-0.129
17,Clc1ccc(OCCCCSc2ncccn2)cc1,0.674
18,COCC(=O)c1[nH]c2ccccc2c1C,-0.0109
19,Cc1nc2ccc(NC3=NCCCCC3)cc2s1,0.806
20,O=C1CCC([N+](=O)[O-])C(c2ccccc2Cl)N1 (configuration not stated),-0.399
21,Cc1cccc(Oc2sc(C(=O)c3ccccc3)c(N)c2C#N)c1C,-0.295
22,O=C(Nc1ccc2c(c1)OCCO2)c1cccs1,-0.281
23,COc1cccc(CNC(=O)C2CCCN(c3nn4c(=O)cc(C)nc4s3)C2)c1OC (configuration not stated),-0.214

row,Structure (SMILES),z-score
1,COc1ccc(-n2c(COc3ccc4ccccc4c3)nnc2SCC(=O)NCc2ccco2)cc1,0.832
2,COc1ccc(/C=C(/NC(=O)c2ccccc2)c2nc3ccc(Cl)cc3[nH]2)cc1OC,-0.329
3,Cc1cccc(CN2C(=O)N/C(=C/c3cc(C)n(-c4cc(C)ccn4)c3C)C2=O)c1,-0.273
4,COc1cccc(C(=O)Oc2cc(-c3ccccc3)no2)c1,-0.361
5,O=C(c1ccc(COc2ccccc2Br)o1)N1CCN(c2ccccn2)CC1,-1.04
6,Cc1ccc(C(=O)COC(=O)CCC(=O)NC2CCCCC2)cc1C,-0.0803
7,O=C(O)CCC(=O)Nc1ccccc1C(=O)NC1CCCCC1,-0.185
8,CC(=O)Nc1ccc(S(=O)(=O)N2CCOCC2)cc1,-1.1
9,COC(=O)c1cn(C(=O)c2cccs2)c2ccccc12,0.27
10,COC(=O)c1oc2ccc(Cl)cc2c1NC(C)=O,0.415
11,COc1ccc(NC(=S)Nc2ccc(N)c([N+](=O)[O-])c2)cc1,-0.16
12,CCOC(=O)Nc1sc2c(c1C#N)CCCC2,0.504
13,COc1cc(=O)n2c(-c3ccccc3)csc2n1,0.369
14,O=c1cc(O)c(-c2ccccc2Cl)c(Cl)[nH]1,-0.193
15,Cc1ccc(-c2nn3c(C)nnc3s2)cc1NC(=O)c1cccs1,-0.72
16,CCCC(c1nnnn1CC(=O)OCC)N(Cc1cc2ccc(C)cc2[nH]c1=O)C1CCCC1 (configuration not stated),-0.0222
17,CC(C)(C)c1cc(C(=O)NCc2ccccc2)ccn1,-0.233
18,CCOC(=O)c1c(/N=C/N(C)C)sc(/C=N/Nc2ccccc2)c1-c1ccccc1,-0.237
19,Cc1cccc(-c2nc(CN3CCCC(C(=O)NC4CCCCC4)C3)c(C)o2)c1 (configuration not stated),-2.43
20,Cc1cc(=O)n(C)c(=O)n1CCCCCCOc1ccc([N+](=O)[O-])cc1,0.0833
21,CCOC(=O)c1c(C)n(C)c2ccc(O)c(CN3CCN(C)CC3)c12,0.0797
22,Cc1nnc(-c2cnn(C)c2N)n1Cc1ccccc1,0.248
23,CCS(=O)(=O)N1CCN(c2ccccc2F)CC1,0.337

row,Structure (SMILES),z-score
1,NCCc1nnc(SCc2ccccc2F)o1,0.00316
2,Cc1cccc(NS(=O)(=O)c2cc(C(=O)OC(C)C(=O)NCc3ccc4c(c3)OCO4)ccc2C)c1 (configuration not stated),-0.277
3,CCOc1ccc(-c2nc(C#N)c(N3CCN(CC)CC3)o2)cc1,-1.03
4,CCCCCCn1ccc(=N)cc1,0.937
5,O=C1NC(=O)C(Nc2cccc3ccccc23)S1 (configuration not stated),-0.127
6,COc1cccc2cc(C(=O)NC3CC(C)(C)NC(C)(C)C3)c(=O)oc12,0.914
7,CCN1CCN(c2ncnc3c2oc2nc(C)c4c(c23)CC(C)(C)OC4)CC1,-0.192
8,CN(C)S(=O)(=O)c1cccc(NC(=O)COC(=O)/C=C/c2ccco2)c1,-0.175
9,COc1ccc(C2CC(c3cccs3)=NN2C(=S)Nc2ccccc2)cc1OC (configuration not stated),-0.0857
10,O=C1Nc2ccccc2C12OCCCCO2,-0.0325
11,Cc1nc2c(C)cccn2c1/C(O)=C1\C(=O)C(=O)N(CCN2CCOCC2)C1c1cccs1 (configuration not stated),-0.0823
12,CN(c1cccc(NC(=O)Nc2ccc(Cl)cc2)c1)S(C)(=O)=O,-0.411
13,COc1ccc2c(c1)c(CCN1C(=O)c3ccccc3C1=O)cn2C(=O)c1ccco1,-0.748
14,CCOc1ccc(-c2nc(C#N)c(N3CCCCCC3)o2)cc1,-0.165
15,CCCCC(=O)Nc1nc2c(OC)ccc(OC)c2s1,-0.0216
16,Cc1ccc(S(=O)(=O)NN=C2C3CC4CC(C3)CC2C4)cc1[N+](=O)[O-],-0.336
17,CCOc1ccc2[nH]c(=O)c(CN(Cc3nnnn3CCc3ccccc3)CC3CCCO3)cc2c1 (configuration not stated),-0.82
18,CCCc1sc(N)nc1-c1ccc(Cl)cc1,-0.288
19,Cc1ccc(NC(=O)C(NC2CCCc3ccccc32)c2ccccc2)cc1Cl (configuration not stated),-0.174
20,O=C(O)C1CC(=O)N(Cc2ccc3c(c2)OCO3)C1 (configuration not stated),-0.169
21,Cc1ccc([N+](=O)[O-])cc1NC(=O)CN1CCCCC1,-0.118
22,Cc1ccc2cc(C(c3nnnn3Cc3ccccc3)N3CCc4ccccc43)c(=O)[nH]c2c1 (configuration not stated),-0.121
23,Cc1cccc(OCC(=O)Nc2nnn(C)n2)c1C,-0.175

row,Structure (SMILES),z-score
1,Oc1[nH]c2ccccc2c1N=Nc1ccc(F)cc1,-0.405
2,C=CCn1c(SCc2nc3ccccc3[nH]2)nnc1-c1cccc(OC)c1,-0.203
3,CCCCc1nc(N2CCOCC2)c(C#N)c2c1COC(C)(C)C2,-0.434
4,Cc1cc(C)n(-c2nc3ccccc3nc2Nc2ccc(CC(=O)O)cc2)n1,1.13
5,Cc1ccc(OCC(=O)N/N=C\c2ccncc2)c(C)c1,1.4
6,COc1ccc(C(=O)Cn2c(C(=O)/C=C/c3ccccc3)nc3ccccc32)cc1,0.108
7,CCn1c(SCC(=O)N2CCN(S(=O)(=O)c3ccccc3)CC2)nnc1-c1cccs1,0.253
8,c1nnc(NC2=NCCCCC2)s1,0.397
9,O=C(CN1CCN(CC(=O)c2ccc(F)cc2)CC1)Nc1ccccc1Cl,-0.57
10,O=C(Nc1ccc2c(c1)nc1n2CCN(Cc2ccccc2)C1)NC1CCCCC1,-0.00948
11,CC(C)Oc1cc(NC(=O)CS(=O)CC(=O)Nc2cccc(C(F)(F)F)c2)c(Cl)cc1Cl (configuration not stated),2.75
12,Cc1ccc(S(=O)(=O)N2CCCC(C(=O)NCCC3=CCCCC3)C2)cc1 (configuration not stated),-0.113
13,O=c1[nH]c(NCc2ccccc2)nc2c1CCCC2,-0.118
14,O=S(=O)(c1ccc2c(c1)nc(COc1ccc(Cl)cc1)n2CC1CCCO1)N1CCOCC1 (configuration not stated),-0.726
15,COc1ccc(CCNc2cc(=O)[nH]c(N)n2)cc1,0.326
16,CCn1c(CNC(=O)COc2c(C)cccc2C)nnc1SCC(=O)Nc1nccs1,-0.314
17,CCC(=O)N1c2ccc(C)cc2C2=NNC(=S)NC21O (configuration not stated),active: 3.09
18,CN(C(=S)NC(=O)C1(C)CC1(Cl)Cl)c1ccccc1 (configuration not stated),0.779
19,Cc1ccc(-c2nc(N/N=C/c3cccnc3)c3ccccc3n2)cc1,-0.0686
20,CCCCCCC(=O)N/N=C1\CCCc2ccccc21,-0.118
21,Cc1ccnc(NS(=O)(=O)c2ccc(NS(=O)(=O)c3ccccc3)cc2)n1,0.597
22,CN(CC(CC(=O)Nc1nncs1)c1ccccc1)S(=O)(=O)c1ccccc1 (configuration not stated),-0.266
23,CSc1ccc(/C=N/NC(=O)c2cccc(O)c2)cc1,-0.311

row,Structure (SMILES),z-score
1,O=C(NC(c1ccccc1)c1ccccc1)C1CCCN(S(=O)(=O)c2cnc[nH]2)C1 (configuration not stated),1.14
2,NC(=O)c1ccc(-n2nnnc2SCc2ccc(F)cc2)cc1,0.068
3,CCOc1cc(C(c2c(C)[nH][nH]c2=O)c2c(C)[nH][nH]c2=O)ccc1OS(=O)(=O)c1ccc(C)cc1,-0.266
4,COc1ccc(C2(C)NC(=O)N(CC(=O)Nc3ccc4c(c3)OCO4)C2=O)cc1OC (configuration not stated),-0.168
5,CC(=O)OC(C(=O)N1CCN(c2ccccc2F)CC1)c1ccccc1 (configuration not stated),0.124
6,N#Cc1cccc(NC(=O)COc2ccc(-n3ccnc3)cc2)c1,0.292
7,O=C(CCCN1C(=O)c2ccccc2C1=O)Oc1ccc(F)cc1,-0.712
8,CCCc1nnc(NC(=O)Nc2ccccc2OC)s1,-0.185
9,O=C(c1ccccc1Nc1ccc(SC(F)F)cc1)N1CCCCCC1,0.00907
10,CN(Cc1nc2ccccc2c(=O)[nH]1)Cc1cc(=O)oc2ccc3ccccc3c12,-0.196
11,CC(=O)CC(C)(C)S(=O)(=O)c1ccc(Oc2ccc(S(=O)(=O)C(C)(C)CC(C)=O)cc2)cc1,-0.0659
12,Cc1nc(N2CCOCC2)[nH]c(=O)c1CCC(C)C,-1.88
13,c1ccc2c(c1)C(=NC1CCCCC1)NC2=NC1CCCCC1,1.08
14,CCOC(=O)c1ccc2nc(NC(=O)c3cccs3)sc2c1,-0.513
15,CCCCCn1c(=O)[nH]c2cc(C(=O)N3CCN(Cc4ccc5c(c4)OCO5)CC3)ccc2c1=O,-0.162
16,CCCn1nnnc1SCC(=O)N1CCCC1,-0.0539
17,CCN(c1cccc(C)c1)c1nc2ccsc2c(=O)s1,-0.0631
18,Nc1nc(CN2CCN(Cc3ccc4c(c3)OCO4)CC2)nc(Nc2ccccc2)n1,-0.232
19,CCNc1nc(SC(C(C)=O)C(C)=O)nc(N(C)C)n1,-0.676
20,CCN(CC)S(=O)(=O)c1cc(NC(=O)COC(=O)CCc2nc3ccccc3s2)ccc1C,-0.0389
